# The supplement of paper PMC8728848
# The other results are listed elsewhere or left out.
# Legend:
# Assay in all cases: glycan array binding signal (z-score within array); higher = stronger binding
# Conditions in all cases: glycan notation: IUPAC condensed, linker removed
# Gal6S(b1-4)Glc6S = target: Gal6S(b1-4)Glc6S
# How it was run: (§1)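 Columns mapping to the same glycan were averaged after glycan names were converted to IUPAC-condensed notation. The data come from 3228 arrays in the Consortium for Functional Glycomics database, limited to those with an available protein sequence. Binding is reported as a within-array Z-score averaged across arrays of one protein sequence and across linkers.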
# Gal6S(b1-4)GlcNAc = target: Gal6S(b1-4)GlcNAc
# How it was run: as §1
# Gal6S(b1-4)GlcNAc6S = target: Gal6S(b1-4)GlcNAc6S
# How it was run: as §1
# GalNAc(a1-3)Gal = target: GalNAc(a1-3)Gal
# How it was run: as §1
# GalNAc(a1-3)GalNAc = target: GalNAc(a1-3)GalNAc
# How it was run: as §1
# [1] = target: GalNAc(a1-3)GalNAc(b1-3)Gal(a1-4)Gal(b1-4)Glc
# How it was run: as §1
# [2] = target: GalNAc(a1-3)GalNAc(b1-3)Gal(a1-4)Gal(b1-4)GlcNAc
# How it was run: as §1
# GalNAc(b1-3)Gal = target: GalNAc(b1-3)Gal
# How it was run: as §1
# [3] = target: GalNAc(b1-3)Gal(a1-4)Gal(b1-4)GlcNAc
# How it was run: as §1
# [4] = target: GalNAc(b1-3)Gal(a1-4)Gal(b1-4)GlcNAc(b1-3)Gal(b1-4)Glc
# How it was run: as §1
# [5] = target: GalNAc(b1-3)Gal(a1-6)Gal(b1-4)Glc
# How it was run: as §1
# GalNAc(b1-3)GalNAc = target: GalNAc(b1-3)GalNAc
# How it was run: as §1
# GalNAc(b1-3)GlcNAc = target: GalNAc(b1-3)GlcNAc
# How it was run: as §1
# GalNAc(b1-4)Gal(b1-4)Glc = target: GalNAc(b1-4)Gal(b1-4)Glc
# How it was run: as §1
# GalNAc(b1-4)GlcNAc = target: GalNAc(b1-4)GlcNAc
# How it was run: as §1
# [6] = target: GalNAc(b1-4)GlcNAc(b1-2)Man
# How it was run: as §1
# [7] = target: GalNAc(b1-4)GlcNAc(b1-2)Man(a1-3)[GalNAc(b1-4)GlcNAc(b1-2)Man(a1-6)]Man(b1-4)GlcNAc(b1-4)GlcNAc
# How it was run: as §1
# [8] = target: GalNAc(b1-4)GlcNAc(b1-3)GalNAc(b1-4)GlcNAc
# How it was run: as §1
# GalNAc(b1-4)GlcNAc6S = target: GalNAc(b1-4)GlcNAc6S
# How it was run: as §1
# GalNAc(b1-6)GalNAc = target: GalNAc(b1-6)GalNAc
# How it was run: as §1
# GalNAc3S(b1-4)GlcNAc = target: GalNAc3S(b1-4)GlcNAc
# How it was run: as §1
# GalNAc3S(b1-4)GlcNAc3S = target: GalNAc3S(b1-4)GlcNAc3S
# How it was run: as §1
# [9] = target: GalNAc3S(b1-4)[Fuc(a1-3)]GlcNAc
# How it was run: as §1
# GalNAc4S6S(b1-4)GlcNAc = target: GalNAc4S6S(b1-4)GlcNAc
# How it was run: as §1
# GalNAc6S(b1-4)GlcNAc = target: GalNAc6S(b1-4)GlcNAc
# How it was run: as §1
# Glc(a1-4)Glc = target: Glc(a1-4)Glc
# How it was run: as §1
# [10] = target: Glc(a1-4)Glc(a1-4)Glc(a1-4)Glc
# How it was run: as §1
# Glc(a1-6)Glc(a1-6)Glc = target: Glc(a1-6)Glc(a1-6)Glc
# How it was run: as §1
# [11] = target: Glc(a1-6)Glc(a1-6)Glc(a1-6)Glc
# How it was run: as §1
# Glc(b1-4)Glc = target: Glc(b1-4)Glc
# How it was run: as §1
# Glc(b1-6)Glc = target: Glc(b1-6)Glc
# How it was run: as §1
# GlcA(b1-3)Gal = target: GlcA(b1-3)Gal
# How it was run: as §1
# GlcA(b1-3)GlcNAc = target: GlcA(b1-3)GlcNAc
# How it was run: as §1
# GlcA(b1-6)Gal = target: GlcA(b1-6)Gal
# How it was run: as §1
# [12] = target: GlcA3S(b1-3)Gal(b1-4)GlcNAc(b1-2)Man
# How it was run: as §1
# [13] = target: GlcA3S(b1-3)Gal(b1-4)GlcNAc(b1-3)Gal(b1-4)Glc
# How it was run: as §1
# [14] = target: GlcNAc(a1-3)Gal(b1-4)GlcNAc
# How it was run: as §1
binder,measurement,setting,value
PX9937B-bvu-524-33-524 (Bacteroides vulgatus) (protein) GTAYWKNPDQFTAFNTGLHALLREKSYNFFLLGEPRADIYGDNPIGGEASQGMERLPFNTINKENVGISNYGDMYKIINQINQMIAKTTETTILTEATQNYYLGEAYGMRAYLYFHLLRSWGDVVLYLDYTEGQNLDLSNITKGVSPATEVMEQIKKDIQASENAFGSDYSFKLGRHFWSAAATQMLKGEAYLWSGRQMNGGNSDYTIAKNAFENVKKADVGLVTSSFKDIFSFENKKNKEMIFTIHNGKDEYEMWGGYYRMRLIPAQDKMVKIYCDENGNSFVGTPDAQLNGLTQLQVRREFYFKGFRNNDTRWTTSLKAVYKKDAQGVVSYFGPITYKFQGTMLEGGSTRSFLDDFPIYRYADCLLQLAMAKVLLGEDPTEEINAVRERAYGSKYFNEHKAEIAYPNDNDPEFYTDNKWMKPDNAGALEAILKERLREFMFEGKRWYDIRLLGWDYVHQYSSAEQSRLLWPIDAGTLTNNSALKQTPGYE,glycan array binding signal (z-score),Gal6S(b1-4)Glc6S,0.737
same,glycan array binding signal (z-score),Gal6S(b1-4)GlcNAc,-0.153
same,glycan array binding signal (z-score),Gal6S(b1-4)GlcNAc6S,-0.297
same,glycan array binding signal (z-score),GalNAc(a1-3)Gal,-0.066
same,glycan array binding signal (z-score),GalNAc(a1-3)GalNAc,-0.035
same,glycan array binding signal (z-score),[1],-0.294
same,glycan array binding signal (z-score),[2],-0.328
same,glycan array binding signal (z-score),GalNAc(b1-3)Gal,-0.236
same,glycan array binding signal (z-score),[3],-0.491
same,glycan array binding signal (z-score),[4],-0.329
same,glycan array binding signal (z-score),[5],-0.287
same,glycan array binding signal (z-score),GalNAc(b1-3)GalNAc,-0.375
same,glycan array binding signal (z-score),GalNAc(b1-3)GlcNAc,-0.278
same,glycan array binding signal (z-score),GalNAc(b1-4)Gal(b1-4)Glc,0.093
same,glycan array binding signal (z-score),GalNAc(b1-4)GlcNAc,0.205
same,glycan array binding signal (z-score),[6],-0.127
same,glycan array binding signal (z-score),[7],-0.228
same,glycan array binding signal (z-score),[8],-0.144
same,glycan array binding signal (z-score),GalNAc(b1-4)GlcNAc6S,-0.323
same,glycan array binding signal (z-score),GalNAc(b1-6)GalNAc,-0.488
same,glycan array binding signal (z-score),GalNAc3S(b1-4)GlcNAc,-0.324
same,glycan array binding signal (z-score),GalNAc3S(b1-4)GlcNAc3S,-0.255
same,glycan array binding signal (z-score),[9],-0.225
same,glycan array binding signal (z-score),GalNAc4S6S(b1-4)GlcNAc,-0.239
same,glycan array binding signal (z-score),GalNAc6S(b1-4)GlcNAc,-0.358
same,glycan array binding signal (z-score),Glc(a1-4)Glc,-0.336
same,glycan array binding signal (z-score),[10],-0.382
same,glycan array binding signal (z-score),Glc(a1-6)Glc(a1-6)Glc,-0.007
same,glycan array binding signal (z-score),[11],-0.254
same,glycan array binding signal (z-score),Glc(b1-4)Glc,0.148
same,glycan array binding signal (z-score),Glc(b1-6)Glc,0.203
same,glycan array binding signal (z-score),GlcA(b1-3)Gal,0.249
same,glycan array binding signal (z-score),GlcA(b1-3)GlcNAc,-0.242
same,glycan array binding signal (z-score),GlcA(b1-6)Gal,-0.249
same,glycan array binding signal (z-score),[12],-0.269
same,glycan array binding signal (z-score),[13],-0.399
same,glycan array binding signal (z-score),[14],-0.395
